# This is one part of the list. Sequences were assembled here from the parent chain. Values near 0.05 are background.
# B1: TEV protease; numbered along this chain (parent)
# chain: MGESLFKGPRDYNPISSSICHLTNESDGHTTSLYGIGFGPFIITNKHLFRRNNGTLVVQSLHGVFKVKDTTTLQQHLVDGRDMIIIRMPKDFPPFPQKLKFREPQREERICLVTTNFQTKSMSSMVSDTSCTFPSGDGIFWKHWIQTKDGQCGSPLVSTRDGFIVGIHSASNFTNTNNYFTSVPKNFMELLTNQEAQQWVSGWRLNADSVLWGGHKVFMVKPEEPFQPVKEATQL
# Variants of: B1
# Experiment: raw area under fraction-flipped curve 0-4 h after induction (AUC4h, not background-subtracted), DNA-recorder readout of cleavage of the substrate (dimensionless); higher = more cleavage of the substrate by the protease variant
# Conditions: temperature: 34 °C; time window: 0-4 h after rhamnose induction
# Description: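 In vivo DNA recorder in E. coli TOP10(DE3) ΔrhaA at 34 °C. Each TEVp single-site mutant (parent TEVp 0) is paired with a single-site variant of the 7-mer TEVs (canonical ENLYFQ|S). The substrate sits between flexible linkers in a Bxb1-sfGFP-TEVs-SsrA fusion, so cleavage stabilises Bxb1 and speeds flipping of a recombination array, read by NGS. The value is the raw area under the fraction-flipped curve over 0-4 h after rhamnose induction (AUC4h), with ≥20 reads per time point. It is not background-subtracted; inactive controls average about 0.047.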
# 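Note: Bxb1 expression induced with 0.2% (w/v) L-rhamnose at OD600 near 0.5, cultures sampled hourly, flipped fraction per protease–substrate barcode pair counted by paired-end Illumina sequencing.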
Variant,area with substrate ANLYFQS,area with substrate CNLYFQS,area with substrate FNLYFQS,area with substrate GNLYFQS,area with substrate HNLYFQS,area with substrate INLYFQS,area with substrate KNLYFQS,area with substrate LNLYFQS,area with substrate MNLYFQS,area with substrate PNLYFQS,area with substrate QNLYFQS,area with substrate SNLYFQS,area with substrate TNLYFQS,area with substrate VNLYFQS,area with substrate WNLYFQS,area with substrate NNLYFQS,area with substrate RNLYFQS,area with substrate YNLYFQS,area with substrate DNLYFQS
Y12E,0.0664,0.0721,0.0733,0.0647,0.0698,0.0373,0.0791,0.0605,0.0666,0.0634,0.0712,0.0752,0.0679,0.078,0.0586,,,,
I19L,0.0695,0.0634,0.061,0.0528,0.0603,0.0516,0.0764,,,0.0789,,0.0685,0.0698,0.0673,0.0618,0.0595,0.0634,0.0624,
C111N,0.0696,0.0461,,,0.0688,,0.0732,,,0.0685,,,0.0347,,,0.068,,0.0617,
S130G,0.044,0.0645,,,0.0329,0.0587,,0.072,0.0546,0.0668,0.0654,0.0634,0.0508,0.0708,0.0652,,,,
S130Q,0.066,0.077,,,0.0685,0.0815,0.0594,0.0752,,,0.0596,,,0.0588,,0.0505,,0.0643,
S154P,0.0543,0.0638,0.0546,,,0.0398,0.0772,0.0602,,,,0.0608,0.0634,,0.0629,0.057,,0.0641,
F140A,0.0256,0.0655,,,0.0398,,,0.0394,0.0435,0.06,0.0643,,,,0.083,,,0.043,
R204Q,0.0695,,,0.0278,0.0525,0.0656,0.0674,0.0721,0.0785,0.0701,,0.0648,,,0.0607,0.0471,,,0.0904
P9V,0.0725,,,0.0508,0.0633,,,0.0628,0.069,0.0637,,0.0735,,,0.0611,,,0.0741,0.0668
H76Q,0.0549,0.06,,,,,0.0655,0.0633,,,,,0.0641,,0.0591,0.0759,0.0641,0.0598,
E107M,0.0371,,0.0555,,0.055,,0.0623,0.076,0.0625,,,0.0705,0.0747,,0.0534,,,,0.0797
D27T,0.0535,,0.0447,,0.058,0.0316,0.0752,0.0637,,0.0595,0.066,0.0502,,0.0575,,0.0667,0.056,0.0599,0.0672
H215R,0.0688,0.0616,0.0489,0.0731,0.0576,0.0691,0.0531,0.0608,0.0664,0.0902,,,,,0.062,0.0606,,,
R81D,0.0463,0.0686,,,0.0594,,0.0451,0.0551,0.0512,0.0591,,,0.077,0.0288,,,,,
I164Y,0.0525,,0.0541,0.0541,0.0519,0.064,0.0635,0.0542,,0.0594,,,0.0515,0.0499,0.0487,,0.0484,0.0496,0.0652
D69I,0.0666,0.0643,,,0.0486,0.0714,0.0555,0.0904,,,,0.059,,,0.0514,0.0705,0.0587,,0.0692
S60E,0.049,0.0494,0.0578,0.0466,0.0518,0.0423,,0.075,,,,0.0584,0.0463,0.0601,0.0485,,,0.0408,
V165S,0.0664,,0.0638,,0.0482,,0.0794,0.0537,0.0546,0.0536,,,0.053,0.0374,,,,,0.0491
D79I,0.0177,,,0.0596,0.0684,,,,,0.0682,,,,,,,,0.0513,0.0878
T114P,0.0821,0.0573,,,,,0.0689,,0.0565,0.057,,,0.0296,,0.045,,0.057,0.0634,
Q105G,0.0644,0.0642,0.0721,0.0543,0.0582,0.0609,,0.065,0.0611,0.0606,0.0682,0.0658,0.0539,0.0746,0.0489,0.071,,0.0618,
S17E,0.0874,0.0662,0.0505,0.0569,0.0591,0.0667,0.0664,0.0566,,0.0608,0.0519,0.0633,0.0556,0.0645,0.055,0.0691,0.0619,0.0659,
S17H,0.0851,0.0819,0.0677,0.0574,0.0596,0.0819,0.075,0.0654,0.0845,0.0467,0.0593,0.0677,0.0831,0.0874,0.0607,0.0663,,0.0618,
A196H,0.0693,0.069,0.0661,,0.0623,0.0644,0.07,0.0616,0.0752,0.0592,,0.0791,0.0599,0.0519,0.0615,0.0658,0.066,0.0617,
V67M,0.0589,0.0615,0.0691,,0.0572,0.0733,0.0562,0.0569,0.0639,0.0584,,0.0565,,0.0618,0.0724,,,0.0428,
Y34G,0.0648,0.025,,0.0666,0.0614,0.0539,0.0598,0.059,,0.0673,,,,,,,0.0507,,
Y34Q,0.0664,0.0664,,,,,,,,,,0.0663,0.0564,,0.0583,,0.048,,
Q151W,0.0475,0.0586,0.0582,0.0605,0.0624,0.059,0.068,0.0583,,0.0654,,0.0557,0.0628,,0.063,0.0536,,0.0549,
I15W,0.064,0.0642,,0.0744,0.0611,,0.071,0.0695,0.068,0.0635,0.074,0.0596,0.0529,,0.0623,0.0526,0.0396,0.0596,

# Source: the supplement of paper PMC12217912
